# Reference: the supplement of paper PMC10185492
# The list shows a part of the results. Read counts after selection give these values, which scatter widely.
# System: SARS-CoV-2 3CLpro (nsp5)
# Test: substrate phage enrichment score (protease-eluted vs HEPES control, +1 offset) (ratio); higher = better cleaved substrate
# Conditions: selection round: 4; protease elution time: 15 min
# Experimental: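 Random heptapeptide substrate phage display (M13 pIII fusion, heptapeptide between an N-terminal biotinylated AviTag GLNDIFEAQKIEWHE and pIII; phages immobilised on streptavidin) eluted by cleavage with 50 nM protease in 20 mM HEPES at 37 °C. Selected phages were NGS sequenced, and the enrichment score is (reads in protease sample + 1)/(reads in HEPES blank-selection control + 1).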
row,Substance,substrate phage enrichment score
1,AGSGEAG,3.67
2,AHAAAHH,2
3,EEVRHMP,> 53
4,VSLQIDR,3.71
5,SCFPARN,0.025
6,SHIQGWS,> 28
7,KSQLNID,8.6
8,YRDNEPW,2.5
9,SERFLHW,1.38
10,CRYQKQH,> 21
11,GCLEVRD,9
12,VDLPKLQ,32
13,ARGETTP,1.3
14,VSREILG,2.75
15,KQCSPRY,9.8
16,CSAHNLW,22
17,AQKHCRQ,> 26
18,FHASKPR,35
19,QAGPYGR,9.23
20,TNKHPRQ,9.33
21,RRVDPPS,> 101
22,SDNSTMR,> 28
23,TRGVPSK,3.83
24,AIAPIYK,1.64
25,RNGLNVQ,5.22

row,Substance,substrate phage enrichment score
1,GVRCTRT,15.3
2,SNAAAHH,0.529
3,LESIPSR,0.844
4,SRSPPAL,> 36
5,YCQGGSA,6.71
6,STLPSRL,0.467
7,RCVDKPI,3.8
8,EHGYSTG,10
9,AVKAKES,11.7
10,SAQKGTP,> 31
11,IQPSWKS,6.93
12,SEGRNAA,> 34
13,ALEGQVK,> 78
14,LNAGDVK,1
15,DHEHMPR,1.75
16,SRVTQGS,0.273
17,PETVLMQ,> 38
18,SPHIGLC,5.73
19,YLTGPGR,0.786
20,SNATAHH,25.5
21,KYITELQ,168
22,GTSQGST,1.21
23,AVLQASG,16.2
24,YGYEHHG,> 57
25,SHCGTTT,> 43

row,Substance,substrate phage enrichment score
1,STGRCMQ,> 30
2,RCRMLPR,> 28
3,DKRSITD,0.333
4,TNKPAQV,1.33
5,ESSSQVK,0.0769
6,CQKAYRG,> 24
7,HDVNLKP,> 43
8,DMGPCIR,1.82
9,LKNAALQ,> 183
10,EQKGWGL,0.438
11,RNYQKCR,5.67
12,FKYPGDR,> 29
13,QRCGDES,> 29
14,RQIAPLS,3.67
15,RGQPETS,> 24
16,YTSTPQE,8.8
17,VTPLTGC,0.611
18,VEKSCCP,0.333
19,AKKDRIT,> 22
20,HLNCAHH,> 41
21,CESSVKP,1.67
22,LCHEPKV,> 28
23,LATFRGS,6.83
24,SCRQKPA,> 70
25,PNALNCS,> 21

row,Substance,substrate phage enrichment score
1,MEQASQQ,12.5
2,CYEAGWH,> 56
3,PSKPTLH,32.8
4,SPRTRLH,> 26
5,SLSRMSL,> 22
6,MDDRCFM,71.5
7,CNAAAHH,0.71
8,ENPRNAD,4.11
9,AEGKGRQ,> 29
10,FVHGYPS,8.67
11,IKSASSR,6.25
12,SEQNVLQ,15
13,ERVDNKE,22.5
14,SDIPTRW,1
15,AFWGPCY,0.1
16,RPEPTKQ,1.5
17,SNLPALQ,66
18,HAAAYGQ,> 22
19,NENGVIV,> 26
20,YQASGAR,> 53
21,RSYTPSN,2.67
22,ALKNSGN,0.476
23,QCKTMNG,> 45
24,CKSSVSR,> 44
25,VKLVPSK,4

row,Substance,substrate phage enrichment score
1,RLWQQDN,> 32
2,TSYSTKY,0.154
3,DENRLRI,> 28
4,RQNEILR,> 38
5,TESLRRR,2
6,RNEACTT,> 27
7,SSNAAAH,2.62
8,LNDRHRS,0.75
9,SWTCHLQ,> 85
10,SMGSSGR,8.45
11,QPGSQQW,> 28
12,EKYGSPL,9.25
13,SNAESCI,0.643
14,HLNWISP,> 21
15,EPWPAKM,0.357
16,WKEQSKK,8.67
17,DTEQLIR,0.655
18,HASEWVP,1.04
19,ADRCKTP,1.55
20,RKSAHHH,0.273
21,GRPHIII,0.714
22,YEGPVNQ,> 22
23,FNEPGTP,23.7
24,SRSEEAA,> 26
25,CKHGSAR,4.08

row,Substance,substrate phage enrichment score
1,LKLNTTR,> 28
2,AYLQSNR,> 32
3,NYDAVNT,2.1
4,TKDSVLQ,26.5
5,NGEASQQ,1.64
6,RNESLNP,> 48
7,SSREDGL,0.467
8,RGAHVER,19.1
9,EIPVPST,> 47
10,PGSAAHH,> 25
11,REAEDRQ,1.31
12,EDCGSRS,1.7
13,SHPSSDW,> 23
14,VTFRLDC,4.75
15,PLTEGRC,> 41
16,MDNQRCH,> 29
17,KRCTKLQ,> 22
18,RVPTADR,10
19,CATNLTG,2.75
20,PAHTDIR,10
21,GPTDFDR,0.014
22,MIRVCCM,6.67
23,GKYNRPT,19
24,RSLDLTA,6.4
25,AGAAHHH,0.591

row,Substance,substrate phage enrichment score
1,SRLTSSG,5
2,TGSCSLQ,> 23
3,GIPAVSQ,7.33
4,TKYEQPW,0.867
5,SWSLSEF,> 37
6,CKTTGEQ,> 52
7,GSAAAHH,0.692
8,CGKLGVY,2.22
9,SPGHQAP,> 23
10,KCGQWAG,> 24
11,AELMGTS,> 21
12,GGTVLQG,20
13,QQEGNVA,> 23
14,DMQAETW,> 29
15,TSKLNDR,> 23
16,LTGVSDR,3
17,DESNDMI,1.5
18,CSAHNMR,16.5
19,GPDAQYR,> 22
20,RAYQLNA,6.62
21,KSHRKQP,1.18
22,VPTTTLQ,58
23,DPQSNRV,2.67
24,LPRTHHS,1.07
25,HYPLMKP,> 152

row,Substance,substrate phage enrichment score
1,RRGTLTD,10
2,PSSVMMG,> 24
3,TSTGTAT,0.05
4,KAHLKDS,1.25
5,NSAATLS,3.14
6,SAACMKR,> 25
7,QCPRPGQ,8.3
8,AHRSTVT,> 24
9,CNFQGGS,1.6
10,LGGSAAA,2.47
11,SHLSVLH,12.5
12,VTESAPW,2.39
13,KGWNTHQ,5.75
14,SKIKQNL,3.6
15,KPNNQGG,> 39
16,ESASDLS,10.5
17,NNPPTRA,3.4
18,VGSAAAH,0.647
19,HHHGAAE,0.312
20,CPLSPYN,0.972
21,RTQLNGC,> 26
22,RQSKLSG,0.2
23,RSWSVHT,0.12
24,ARPTVLQ,> 24
25,RRVDEAT,8.33

row,Substance,substrate phage enrichment score
1,SVPKLCA,0.562
2,SKNLICT,> 21
3,NDNWMPV,3.19
4,KTTLQSN,772
5,AAGPRWL,> 36
6,RNTCVLQ,36.3
7,VFPRLQS,> 61
8,SCEVFRH,2.64
9,SGSAILT,> 65
10,HRQYLYC,2.38
11,ARGELDA,> 52
12,YTRTERG,7.33
13,KSMHKHA,1
14,LNSESQS,1.9
15,RSSDPSF,2.45
16,SNCSQLQ,> 23
17,VGRLGIV,> 26
18,TRHHHHG,3.5
19,LVRPHII,0.63
20,GGGGGGG,0.769
21,YEHSPEA,2
22,TSLQGTT,> 26
23,PLCVTLQ,> 29
24,VSGWTEI,5.75
25,MELEHTF,1.3

row,Substance,substrate phage enrichment score
1,VSGAAPC,> 28
2,LKAAHHH,0.784
3,STSDVVR,2.64
4,EYCHGMS,0.0769
5,RNAAAHH,2.4
6,GTLKTEA,0.25
7,GWYQGDN,> 33
8,ALHGTRC,0.529
9,IETRLSV,> 21
10,FSCLPGP,6.8
11,AASVSLQ,> 23
12,IPIHCDR,3.37
13,AHSQCLQ,11.5
14,CYRPVPR,2.11
15,KTKSECT,1.45
16,IETEDVT,> 126
17,SAAAPQH,1.83
18,SSWPPEG,> 40
19,WQHHDGK,> 51
20,PDFQGGS,1.02
21,DRSRTES,0.909
22,WHTTRTT,3.33
23,HCLKDMA,1.71
24,YQLHYVD,1.59
25,QVEPAGG,5.5

row,Substance,substrate phage enrichment score
1,CHREKNS,11
2,RLPFQGG,2.29
3,SHKPRPH,2.29
4,AHPARCS,> 26
5,SSACWRS,1.65
6,SQGTQEN,> 22
7,KAMPNLT,1.75
8,NFHPKLG,1.33
9,VIEKPYH,> 28
10,PTAETDP,> 37
11,SAAAHPH,1.06
12,DVAAHHH,0.581
13,QLPRMTQ,> 21
14,CNHPMKV,1.33
15,SVPSHIS,> 22
16,SGNYGSL,> 22
17,HGNEVSD,1.45
18,KERLSSS,> 31
19,TRSSGEQ,1.64
20,QRPAPIT,10.8
21,THFQGGS,1.73
22,NDNPKNR,0.135
23,NNYSVQG,1.87
24,CKDVRSK,0.0606
25,GVALESS,> 28

row,Substance,substrate phage enrichment score
1,RSPSLLQ,> 92
2,PCTVTMQ,> 87
3,SHREEYQ,> 145
4,RKEVQMQ,39.2
5,WSAAHHH,0.919
6,RFNTTTR,2.88
7,ASSPQQH,> 29
8,PQWTQSC,5
9,SAAAQQN,1.83
10,LKQNLSP,0.871
11,KGAPCTV,3.29
12,VLSQMPN,0.476
13,TNHPTLT,> 79
14,TRKPHLG,0.8
15,PALLNSG,9.54
16,PNTASPF,0.316
17,RKEQYLP,> 22
18,GPTIRTQ,> 27
19,SDFQGGS,1.58
20,ESLRKQY,> 32
21,SSTANLQ,> 24
22,KGTLRPV,4.38
23,YGRQSLS,0.0909
24,HEIQITK,> 35
25,EPGTAQH,3.6

row,Substance,substrate phage enrichment score
1,ANNTTLQ,> 28
2,KSQKFDV,1.29
3,RKCSETP,0.636
4,KSLAQCQ,8
5,EEADPER,0.0766
6,VRPHIIN,0.929
7,TDVMDQE,0.0408
8,SASTSNR,> 29
9,IKRPPST,2.56
10,VTRSRLC,8.33
11,QSGDATD,4.33
12,QADGTAV,16
13,EIRHCRD,0.778
14,SCDEQHT,> 84
15,TWPQGTE,0.316
16,DVRPWYQ,> 26
17,CPEMQAM,> 26
18,EGPSAMV,6
19,SPNTKNR,2.65
20,DVKLEMR,> 22
21,RNQTPET,19.7
22,VCPQVKN,2.43
23,SQTKAGS,> 29
24,KSTAAHH,0.636
25,AQRAKLQ,> 21

row,Substance,substrate phage enrichment score
1,TRQRPAP,6
2,AAQLQGV,> 32
3,CRVSQPG,> 43
4,PTAKPHP,4.25
5,PYFQGGS,1.12
6,RSNLNGR,0.455
7,TASNETD,0.467
8,YASQPDV,0.75
9,RALRDQQ,1.88
10,QWMERCE,0.6
11,SVSPESH,> 55
12,QSPVRLQ,41.3
13,ELVEDPV,0.826
14,RQGTLPI,0.667
15,TKKCLLQ,> 46
16,QDTAIPT,> 30
17,RGRTILQ,> 486
18,VRTGTKL,6.5
19,RVCFPVN,> 23
20,LNCELGR,7.75
21,PCDKGTA,24
22,YGSSKEP,> 21
23,SKTILLQ,> 191
24,FNPVIGH,> 33
25,ELHCHSA,> 25

row,Substance,substrate phage enrichment score
1,GNSCQAI,3.4
2,TSSPRVM,> 40
3,VSTSKQH,4.14
4,WAPTTPL,> 43
5,SNTRSPK,1.62
6,ISAAHHH,0.8
7,KHKSWCN,1.78
8,QWGLAEK,> 92
9,SYTRYGF,1.2
10,AVQVSHP,1.29
11,SCAAHHH,1.14
12,YTEGYHH,> 44
13,SSKSTVT,> 39
14,LSDQNTP,0.13
15,NRGTSET,> 23
16,VHQWDQQ,> 21
17,GRSANAP,0.261
